Data on four molecules can be found in article PMC13586351.

Chains of the proteins cited; added tags and fusions are not shown.
UniProt Q17RN3: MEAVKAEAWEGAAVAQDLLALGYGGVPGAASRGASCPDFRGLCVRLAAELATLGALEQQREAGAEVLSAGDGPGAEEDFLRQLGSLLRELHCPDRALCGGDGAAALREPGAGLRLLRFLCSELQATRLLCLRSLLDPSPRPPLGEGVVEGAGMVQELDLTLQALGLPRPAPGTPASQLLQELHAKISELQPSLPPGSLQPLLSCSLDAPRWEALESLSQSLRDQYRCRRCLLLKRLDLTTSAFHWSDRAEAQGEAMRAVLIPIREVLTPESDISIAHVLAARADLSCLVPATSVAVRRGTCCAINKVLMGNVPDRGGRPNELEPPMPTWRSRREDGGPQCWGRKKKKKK
UniProt Q9BVC5: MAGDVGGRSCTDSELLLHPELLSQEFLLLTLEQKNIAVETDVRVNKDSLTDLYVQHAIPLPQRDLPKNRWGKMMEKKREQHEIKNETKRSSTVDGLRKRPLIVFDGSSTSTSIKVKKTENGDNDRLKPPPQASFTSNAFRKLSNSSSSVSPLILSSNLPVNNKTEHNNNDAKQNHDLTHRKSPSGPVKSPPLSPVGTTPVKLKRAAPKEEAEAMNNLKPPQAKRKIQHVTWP

Results are given in words; binding and its absence hold for the method and conditions named. For some assays here: Binding seen in cells or lysates may run through a third protein. Some results given as binding are weak or reduced against the parent protein; the word gives no strength.

Experiment [1] has as its target SBP-tagged FAM98C (HEK293T) (human) (UniProt Q17RN3). Description: co-IP; streptavidin affinity co-precipitation from HEK293T lysate with SBP-tagged FAM98A/B/C constructs, co-expressed with the other tRNA-LC subunits; immunoblot.
Experiment [2] deals with SBP-tagged FAM98A (HEK293T) (human) (UniProt Q8NCA5). Described as above.
The target in experiment [3] is T1, CGI-99 (full-length, minimal tRNA-LC, insect cells) (human) (UniProt Q9Y224).
T1 sequence: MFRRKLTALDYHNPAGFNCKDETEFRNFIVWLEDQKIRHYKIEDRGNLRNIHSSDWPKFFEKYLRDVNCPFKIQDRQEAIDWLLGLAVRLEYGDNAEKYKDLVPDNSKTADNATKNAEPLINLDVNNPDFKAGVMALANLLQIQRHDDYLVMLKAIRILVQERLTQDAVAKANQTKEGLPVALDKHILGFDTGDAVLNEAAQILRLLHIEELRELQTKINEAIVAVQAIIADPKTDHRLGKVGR
The experiment is described as follows: SEC; RTCB complexes with FAM98A/B/C co-expressed in insect cells, affinity purified, then size exclusion chromatography and SDS-PAGE; both purified. In general terms: In gel filtration, larger molecules generally elute earlier.

Experiment [4] addresses T2, RTCB (full-length, minimal tRNA-LC, insect cells) (human) (UniProt Q9Y3I0).
T2 sequence: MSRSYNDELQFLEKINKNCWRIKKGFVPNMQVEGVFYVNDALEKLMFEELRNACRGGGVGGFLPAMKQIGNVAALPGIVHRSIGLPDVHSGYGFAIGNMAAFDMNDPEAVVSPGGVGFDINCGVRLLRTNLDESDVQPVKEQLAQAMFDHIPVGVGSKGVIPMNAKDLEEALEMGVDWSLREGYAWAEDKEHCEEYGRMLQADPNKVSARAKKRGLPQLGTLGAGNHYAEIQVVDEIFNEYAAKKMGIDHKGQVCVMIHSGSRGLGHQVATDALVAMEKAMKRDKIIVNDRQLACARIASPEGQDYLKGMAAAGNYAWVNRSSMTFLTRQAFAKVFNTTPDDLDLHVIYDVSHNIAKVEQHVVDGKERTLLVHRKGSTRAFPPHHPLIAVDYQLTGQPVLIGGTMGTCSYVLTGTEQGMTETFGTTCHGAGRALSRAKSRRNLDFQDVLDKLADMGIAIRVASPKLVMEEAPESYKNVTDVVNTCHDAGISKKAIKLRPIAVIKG
The experiment is described as above.

Experiment [5] deals with FAM98A (insect cells, reconstituted RTCB complex) (human) (UniProt Q8NCA5). The experiment is described as above.
Experiment [6] concerns the target FAM98C (insect cells, reconstituted RTCB complex) (human) (UniProt Q17RN3). The experiment is described as above.

As to “Ashwin wild type (HEK293T) (from UniProt Q9BVC5 1-232)”, the binding entry in experiment [1] and in experiment [2] was “no binding” in each case.

With “FAM98A (insect cells, reconstituted RTCB complex) (from UniProt Q8NCA5 1-518)”, the binding entry in experiment [3] and in experiment [4] was “binds” throughout.

Take “FAM98C (insect cells, reconstituted RTCB complex) (from UniProt Q17RN3 1-349)”: the binding entry in experiment [3] and in experiment [4] was “binds” in each case.

B1: DDX1 (insect cells, reconstituted FAM98A/C RTCB complexes) (enzyme, UniProt Q92499 1-740)
chain: MAAFSEMGVMPEIAQAVEEMDWLLPTDIQAESIPLILGGGDVLMAAETGSGKTGAFSIPVIQIVYETLKDQQEGKKGKTTIKTGASVLNKWQMNPYDRGSAFAIGSDGLCCQSREVKEWHGCRATKGLMKGKHYYEVSCHDQGLCRVGWSTMQASLDLGTDKFGFGFGGTGKKSHNKQFDNYGEEFTMHDTIGCYLDIDKGHVKFSKNGKDLGLAFEIPPHMKNQALFPACVLKNAELKFNFGEEEFKFPPKDGFVALSKAPDGYIVKSQHSGNAQVTQTKFLPNAPKALIVEPSRELAEQTLNNIKQFKKYIDNPKLRELLIIGGVAARDQLSVLENGVDIVVGTPGRLDDLVSTGKLNLSQVRFLVLDEADGLLSQGYSDFINRMHNQIPQVTSDGKRLQVIVCSATLHSFDVKKLSEKIMHFPTWVDLKGEDSVPDTVHHVVVPVNPKTDRLWERLGKSHIRTDDVHAKDNTRPGANSPEMWSEAIKILKGEYAVRAIKEHKMDQAIIFCRTKIDCDNLEQYFIQQGGGPDKKGHQFSCVCLHGDRKPHERKQNLERFKKGDVRFLICTDVAARGIDIHGVPYVINVTLPDEKQNYVHRIGRVGRAERMGLAISLVATEKEKVWYHVCSSRGKGCYNTRLKEDGGCTIWYNEMQLLSEIEEHLNCTISQVEPDIKVPVDEFDGKVTYGQKRAAGGGSYKGHVDILAPTVQELAALEKEAQTSFLHLGYLPNQLFRTF
As to B1, the binding result in experiment [5] and in experiment [6] was “binds” in each case.
